# Reference: the supplement of paper PMC8728848
# Some of the results follow.
# How the values were obtained:
# Assay in all cases: glycan array binding signal (z-score within array); higher = stronger binding
# Conditions in all cases: glycan notation: IUPAC condensed, linker removed
# [1] = target: Gal4S6S(b1-4)GlcNAc
# How it was run: (§1)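 Glycan array data were curated from 3228 arrays in the Consortium for Functional Glycomics database and kept only where the protein sequence was available. Glycan names were converted to IUPAC-condensed notation, and columns mapping to the same glycan were averaged. The binding signal is a within-array Z-score, averaged across arrays of the same protein sequence at different concentrations or buffers and across linkers. Negative Z-scores can be read as non-binding.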
# [2] = target: Gal6P(b1-4)GlcNAc
# How it was run: as §1
# [3] = target: Gal6S(b1-3)GlcNAc
# How it was run: as §1
# [4] = target: Gal6S(b1-3)GlcNAc6S
# How it was run: as §1
# [5] = target: Gal6S(b1-4)Glc
# How it was run: as §1
# [6] = target: Gal6S(b1-4)Glc6S
# How it was run: as §1
# [7] = target: Gal6S(b1-4)GlcNAc
# How it was run: as §1
# [8] = target: Gal6S(b1-4)GlcNAc6S
# How it was run: as §1
# [9] = target: GalNAc(a1-3)Gal
# How it was run: as §1
# [10] = target: GalNAc(a1-3)GalNAc
# How it was run: as §1
# [11] = target: GalNAc(a1-3)GalNAc(a1-3)Gal(a1-4)Gal(b1-4)GlcNAc
# How it was run: as §1
# [12] = target: GalNAc(a1-3)GalNAc(b1-3)Gal(a1-4)Gal(b1-4)Glc
# How it was run: as §1
# [13] = target: GalNAc(a1-3)GalNAc(b1-3)Gal(a1-4)Gal(b1-4)GlcNAc
# How it was run: as §1
# [14] = target: GalNAc(b1-3)Gal
# How it was run: as §1
# [15] = target: GalNAc(b1-3)Gal(a1-4)Gal(b1-4)GlcNAc
# How it was run: as §1
# [16] = target: GalNAc(b1-3)Gal(a1-4)Gal(b1-4)GlcNAc(b1-3)Gal(b1-4)Glc
# How it was run: as §1
# [17] = target: GalNAc(b1-3)Gal(a1-6)Gal(b1-4)Glc
# How it was run: as §1
# [18] = target: GalNAc(b1-3)GalNAc
# How it was run: as §1
# [19] = target: GalNAc(b1-3)GlcNAc
# How it was run: as §1
# [20] = target: GalNAc(b1-4)Gal(b1-4)Glc
# How it was run: as §1
# [21] = target: GalNAc(b1-4)GlcNAc
# How it was run: as §1
# [22] = target: GalNAc(b1-4)GlcNAc(b1-2)Man
# How it was run: as §1
# [23] = target: GalNAc(b1-4)GlcNAc(b1-2)Man(a1-3)[GalNAc(b1-4)GlcNAc(b1-2)Man(a1-6)]Man(b1-4)GlcNAc(b1-4)GlcNAc
# How it was run: as §1
# [24] = target: GalNAc(b1-4)GlcNAc(b1-3)GalNAc(b1-4)GlcNAc
# How it was run: as §1
# [25] = target: GalNAc(b1-4)GlcNAc6S
# How it was run: as §1
# [26] = target: GalNAc(b1-6)GalNAc
# How it was run: as §1
# [27] = target: GalNAc3S(b1-4)GlcNAc
# How it was run: as §1
# [28] = target: GalNAc3S(b1-4)GlcNAc3S
# How it was run: as §1
# [29] = target: GalNAc3S(b1-4)[Fuc(a1-3)]GlcNAc
# How it was run: as §1
# [30] = target: GalNAc4S6S(b1-4)GlcNAc
# How it was run: as §1
# [31] = target: GalNAc6S(b1-4)GlcNAc
# How it was run: as §1
# [32] = target: Glc(a1-4)Glc
# How it was run: as §1
# [33] = target: Glc(a1-4)Glc(a1-4)Glc(a1-4)Glc
# How it was run: as §1
# [34] = target: Glc(a1-6)Glc(a1-6)Glc
# How it was run: as §1
# [35] = target: Glc(a1-6)Glc(a1-6)Glc(a1-6)Glc
# How it was run: as §1
# [36] = target: Glc(b1-4)Glc
# How it was run: as §1
# [37] = target: Glc(b1-6)Glc
# How it was run: as §1
# [38] = target: GlcA(b1-3)Gal
# How it was run: as §1
# [39] = target: GlcA(b1-3)GlcNAc
# How it was run: as §1
# [40] = target: GlcA(b1-6)Gal
# How it was run: as §1
# [41] = target: GlcA3S(b1-3)Gal(b1-4)GlcNAc(b1-2)Man
# How it was run: as §1
# [42] = target: GlcA3S(b1-3)Gal(b1-4)GlcNAc(b1-3)Gal(b1-4)Glc
# How it was run: as §1
# [43] = target: GlcNAc(a1-3)Gal(b1-4)GlcNAc
# How it was run: as §1
# [44] = target: GlcNAc(a1-4)Gal(b1-3)GlcNAc
# How it was run: as §1
# [45] = target: GlcNAc(a1-4)Gal(b1-4)GalNAc
# How it was run: as §1
binder,measurement,setting,value
"GNA (Galanthus nivalis), P30617 (protein) MAKASLLILAAIFLGVITPSCLSDNILYSGETLSTGEFLNYGSFVFIMQEDCNLVLYDVDKPIWATNTGGLSRSCFLSMQTDGNLVVYNPSNKPIWASNTGGQNGNYVCILQKDRNVVIYGTDRWATGTHTGLVGIPASPPSEKYPTAGKIKLVTAK",glycan array binding signal (z-score),[1],-0.063
same,glycan array binding signal (z-score),[2],-0.137
same,glycan array binding signal (z-score),[3],-0.18
same,glycan array binding signal (z-score),[4],-0.173
same,glycan array binding signal (z-score),[5],-0.09
same,glycan array binding signal (z-score),[6],0.004
same,glycan array binding signal (z-score),[7],-0.105
same,glycan array binding signal (z-score),[8],0.095
same,glycan array binding signal (z-score),[9],-0.223
same,glycan array binding signal (z-score),[10],-0.302
same,glycan array binding signal (z-score),[11],-0.172
same,glycan array binding signal (z-score),[12],-0.176
same,glycan array binding signal (z-score),[13],-0.173
same,glycan array binding signal (z-score),[14],-0.058
same,glycan array binding signal (z-score),[15],-0.073
same,glycan array binding signal (z-score),[16],-0.214
same,glycan array binding signal (z-score),[17],-0.142
same,glycan array binding signal (z-score),[18],-0.175
same,glycan array binding signal (z-score),[19],-0.159
same,glycan array binding signal (z-score),[20],-0.15
same,glycan array binding signal (z-score),[21],-0.241
same,glycan array binding signal (z-score),[22],-0.169
same,glycan array binding signal (z-score),[23],0.048
same,glycan array binding signal (z-score),[24],-0.177
same,glycan array binding signal (z-score),[25],-0.188
same,glycan array binding signal (z-score),[26],-0.166
same,glycan array binding signal (z-score),[27],-0.178
same,glycan array binding signal (z-score),[28],-0.172
same,glycan array binding signal (z-score),[29],-0.171
same,glycan array binding signal (z-score),[30],-0.156
same,glycan array binding signal (z-score),[31],-0.199
same,glycan array binding signal (z-score),[32],-0.148
same,glycan array binding signal (z-score),[33],-0.166
same,glycan array binding signal (z-score),[34],-0.217
same,glycan array binding signal (z-score),[35],-0.155
same,glycan array binding signal (z-score),[36],-0.26
same,glycan array binding signal (z-score),[37],-0.237
same,glycan array binding signal (z-score),[38],-0.157
same,glycan array binding signal (z-score),[39],-0.19
same,glycan array binding signal (z-score),[40],-0.077
same,glycan array binding signal (z-score),[41],-0.182
same,glycan array binding signal (z-score),[42],-0.144
same,glycan array binding signal (z-score),[43],-0.288
same,glycan array binding signal (z-score),[44],-0.095
same,glycan array binding signal (z-score),[45],-0.139
